In paper PMC4336329 (PLoS ONE, 2015):
Hit rate of the full screen: of about 310,000 compounds, about 2,200 (0.71%) showed an effect of 50% or more. Effects have a minus sign here. Some of the results follow.

Target: human ether-à-go-go-related gene (hERG) potassium channel (human, UniProt Q12809)
Test: primary screen, population patch clamp on CHO cells stably expressing hERG

Sequence of human ether-à-go-go-related gene (hERG) potassium channel (Q12809 whole entry, looked up): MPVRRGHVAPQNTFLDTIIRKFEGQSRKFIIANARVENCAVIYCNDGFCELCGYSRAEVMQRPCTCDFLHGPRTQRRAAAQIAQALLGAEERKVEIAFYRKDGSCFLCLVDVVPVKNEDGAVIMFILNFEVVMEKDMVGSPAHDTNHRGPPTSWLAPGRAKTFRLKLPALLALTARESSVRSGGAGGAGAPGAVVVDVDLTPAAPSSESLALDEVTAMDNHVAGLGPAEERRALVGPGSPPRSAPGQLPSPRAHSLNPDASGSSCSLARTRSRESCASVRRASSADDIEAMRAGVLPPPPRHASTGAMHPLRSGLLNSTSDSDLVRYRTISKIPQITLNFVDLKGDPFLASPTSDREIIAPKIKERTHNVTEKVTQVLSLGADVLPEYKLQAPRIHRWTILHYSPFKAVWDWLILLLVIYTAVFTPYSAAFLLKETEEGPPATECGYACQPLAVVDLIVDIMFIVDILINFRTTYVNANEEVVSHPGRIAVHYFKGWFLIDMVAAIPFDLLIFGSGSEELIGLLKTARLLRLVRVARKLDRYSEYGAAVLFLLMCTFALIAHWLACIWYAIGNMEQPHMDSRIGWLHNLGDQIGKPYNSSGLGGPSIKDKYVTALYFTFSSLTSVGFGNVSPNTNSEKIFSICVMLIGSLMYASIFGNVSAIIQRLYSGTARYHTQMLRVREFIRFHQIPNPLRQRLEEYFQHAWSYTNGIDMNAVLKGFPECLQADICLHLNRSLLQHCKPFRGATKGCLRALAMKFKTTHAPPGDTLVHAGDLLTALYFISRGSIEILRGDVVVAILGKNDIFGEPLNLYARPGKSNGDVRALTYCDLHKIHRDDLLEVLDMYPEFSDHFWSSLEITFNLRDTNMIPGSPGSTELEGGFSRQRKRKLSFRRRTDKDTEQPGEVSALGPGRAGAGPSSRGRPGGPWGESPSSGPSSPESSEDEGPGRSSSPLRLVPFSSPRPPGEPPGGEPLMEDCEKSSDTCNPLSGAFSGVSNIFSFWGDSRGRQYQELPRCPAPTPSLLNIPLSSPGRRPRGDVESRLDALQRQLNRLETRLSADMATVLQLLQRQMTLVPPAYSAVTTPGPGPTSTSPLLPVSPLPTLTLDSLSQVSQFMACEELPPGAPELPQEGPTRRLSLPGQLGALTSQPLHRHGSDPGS

Structure (SMILES)	hERG current change (%, negative = inhibition) at 1uM [%]
Nc1nonc1-c1nc2ccccc2[nH]1	-3.02
Cc1cc(C)c(-c2cc(C(=O)Nc3c(C)n(C)n(-c4ccccc4)c3=O)[nH]n2)c(O)c1	0.804
Cc1cccc(-n2c(C)nc3ccc(Cl)cc3c2=O)c1	6.87
COc1cc(C)ccc1OCc1cc(C(=O)NC(C)Cn2cncn2)no1 (stereo not drawn)	15
CCN1CCN(CCNC(=O)c2ccc(/C=C3/Sc4ccccc4N(Cc4cccc(C)c4)C3=O)cc2)CC1	9.62
O=C1CN=C(c2ccccc2)c2cc(Br)ccc2N1	-7.91
O=S(=O)(c1ccc(SCCO)nc1)N1CCOCC1	8.12
COc1cccc(-c2nc(CS(=O)(=O)CC(=O)Nc3cc(OC)ccc3OC)c(C)o2)c1	19.8
CCN(CC(=O)Nc1c(F)cccc1F)C(=O)CN1c2cccc3cccc(c23)S1(=O)=O	7.74
CCCCCc1ccc(-c2cn(Cc3ccc(C)cc3)nn2)cc1	18.5
COc1ccc(-c2ccc3c(c2)S(=O)(=O)c2cccc(C(=O)NC[C@@H]4CCCO4)c2C3=O)cc1OC	12.2
CC1CC(C)CN(C(=O)C2CCN(S(=O)(=O)c3cccs3)CC2)C1 (stereo not drawn)	7.1
COc1ccc(NC(=O)c2ccc(-c3csc(C)n3)cc2)cc1	15.2
C[C@@H]1C=C[C@](Cc2ccccc2)(C(=O)O)N1C(=O)c1ccccc1	15.4
Cc1nccn1CCOc1ccc(Cl)cc1.O=C(O)C(=O)O	4.54
CCOc1ccc(CCNC(=O)CSc2cc(=O)n(C)c3ccccc23)cc1OCC	8.52
CN1CCN(C(=O)c2cc3c(s2)-c2ccccc2S(=O)(=O)C3)CC1	4.62
CCCCOc1ccc(C2NC(=O)NC(C)=C2C(C)=O)cc1OCC (stereo not drawn)	9.83
c1ccc(CCCCN2C(Nc3ccccc3)=NC[C@@H]2Cc2ccccc2)cc1	-39.7

Structure (SMILES)	hERG current change (%, negative = inhibition) at 1uM [%]
CN(C)C(=O)C12CCC(C)(C(=O)C1Br)C2(C)C (stereo not drawn)	14.5
CCC(NC(=O)c1cc(COc2cncc(Cl)c2)on1)c1ccc(C)cc1 (stereo not drawn)	7.23
CCCn1c(CNC(=O)Cc2ccccc2)nc2ccccc21	-4.41
CC(C)c1ccc(Nc2nnns2)cc1	14.3
CN1CCC(CNC(=O)Nc2csc3ccccc23)CC1	9.1
Fc1ccc(-n2cc(-c3ccccc3)c3c(=S)nc[nH]c32)cc1	6.55
Cc1nc(NN)nc(NCc2ccccc2)n1	5.89
COc1ccc(OC)c(C2=NS(=O)(=O)N(C)C(C(=O)NCc3cccs3)=C2)c1	19
CC(C)Cc1cc(C(=O)N2CCCC(C(=O)c3cc(F)ccc3F)C2)no1 (stereo not drawn)	6.18
CCOC(=O)c1c(C)[nH]c(C(=O)COC(=O)CNC(=O)C2CCCCC2)c1C	4.97
Cc1cc(C)c(C)c(S(=O)(=O)N2CCN(C(=O)C3CCC3)CC2)c1C	-0.0399
COCCN(C(=O)CCl)C(C(=O)NC1CCCCC1)c1ccccc1C (stereo not drawn)	7.15
Cn1nnc(NC(=O)c2ccccc2F)n1	2.53
O=C(NCCCN1CCOCC1)C(=O)NCC1OCCCN1S(=O)(=O)c1cc(F)ccc1F (stereo not drawn)	17.7
COc1ccc(COC(=O)NC2CCN(S(=O)(=O)c3ccc(OC)cc3)CC2)cc1	11.8
O=C(Nc1ccccc1Cl)c1ccc2c(=O)n3c(nc2c1)CCC3	6.56
O=C(CCC(=O)c1ccccc1)NCCOc1ccccc1	7.02
COc1ccc(-n2nc3c(c2NC(=O)c2cc(Br)ccc2Cl)CS(=O)C3)cc1 (stereo not drawn)	-31.4
Cc1cccc(N2CCN(CC3CCCCC3)CC2)c1C	14.1

Structure (SMILES)	hERG current change (%, negative = inhibition) at 1uM [%]
C=CCNCC(=O)Nc1ccccc1SCC(=O)Nc1ccsc1C(=O)OC	-1.71
O=C(CNC(=O)c1ccc(Cl)cc1Cl)OCC(=O)N1CCCC1=O	3.65
O=C(Nc1cccc2ncccc12)c1ccccc1[N+](=O)[O-]	13.4
COCCN1C(=O)C(=O)/C(=C(/O)c2cccc(OC)c2)C1c1ccco1 (stereo not drawn)	21.4
Cc1nc2ccc(C(=O)N3c4ccccc4CC3C)cc2s1 (stereo not drawn)	7.37
O=C(NCc1ccc2c(c1)OCO2)c1cnc2n(c1=O)CCS2	11.4
COc1ccc(C)cc1NC(=O)c1cccc(C(=O)Nc2cc(C)ccc2OC)c1	8.18
Cc1cc(OCC(=O)Nc2ccc(N3CCCC3)cc2)cc(C)c1Cl	7.5
NNC(=O)c1ccc(Cl)cc1Cl	13.1
C=C(C)C1CC=C(C)/C(=N/NC(=O)C2CC2c2ccccc2)C1 (stereo not drawn)	11.1
Cc1ccc(NS(=O)(=O)c2cc(NC(=O)C(C)Oc3ccccc3)ccc2C)c(C)c1 (stereo not drawn)	6.5
COc1ccc(NC(=O)Nc2nnc(N3CCCCC3C)s2)cc1OC (stereo not drawn)	7.51
COCc1cc(C)nc2sc(C(=O)Nc3ccccc3F)c(N)c12	12.3
CC(C)(C)N(Cc1ccccc1)C(=O)c1ccc2c(c1)OCCO2	5.7
N=C(N)c1c(O)n(C2CCCCC2)c(=O)n(C2CCCCC2)c1=O	12.2
O=C(O)C1=C(C(=O)Nc2ccc(F)c(Cl)c2)CCCC1	15
CN1C(=O)C(C)(C)c2cc(S(=O)(=O)N3CCCC(C(=O)Nc4ccc(Cl)cc4)C3)ccc21 (stereo not drawn)	10.2
CC1CCN(C(=O)C(Cc2ccccc2)n2cccc2)CC1 (stereo not drawn)	13.1
CC(C)(C(N)=O)N1CCN(c2ncc(C(F)(F)F)cc2Cl)CC1	-26.5
